From the supplement of paper PMC11417369
± gives the standard deviation of the averaged measurements. Some of the results follow.

Test system: PfAP2-G AP2 domain (GST-tagged)
Assay: gcPBM binding intensity (ln(normalized median fluorescence intensity)); higher = stronger DNA binding
In short: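 After 1 h on an Agilent 4 × 180k array of primer-extended double-stranded 36-bp intergenic genomic probes and negative controls, bound GST-tagged P. falciparum DNA-binding domains were detected with Alexa488 anti-GST antibody and scanned at 488 nm. The domains had been expressed in E. coli, and binding took place in 1× PBS with 1% milk, 0.2 mg/ml BSA, 0.5% salmon testes DNA and 0.03% Triton X-100. Binding intensity is the highest Masliner-normalised natural-log median intensity across replicate spots of either probe orientation.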

Row | Sequence | gcPBM binding intensity (ln)
1 | AGACCTATGATATATACACACATATAAATAAATATA [CACACA_site6725] | 9.945 ± 0.035
2 | TTATTAAATATAAATATGTATCTTTTATGTTATATT [CACACA_negctrl_site306] | 9.61 ± 0.085
3 | TTTTTTAAATTTAAAGTGCATTATTATATATTTGTA | 10 ± 0.18
4 | AAAAAAGAAATAAGGATACACACTATTGATAAAAGT [CACACA_site272] | 10.12 ± 0.064
5 | CCAGTGTGCACCTTGCGTACATATTAAATTAATTAA [XGTACX_site3729] | 11.5 ± 0.96
6 | TTTATTTTTTGAAACACACACAAAAAAAATGATACA [CACACA_site1881] | 10.3 ± 0.4
7 | TTCTTTTAAAAATATATTTTAAGAAAATTTAATTTA [GTGCAC_negctrl_site237] | 9.545 ± 0.064
8 | GGATAAGAAAAGAAGTGTACATATATATATATATAT [XGTACX_site8290] | 11.2 ± 0.68
9 | TATCATGGTTCGGATTGTACATATATGAATTTTTTT [XGTACX_site7478] | 10.8 ± 0.45
10 | CAAAAAAAAAAACGGGTGCTAAATTTTATTTTTTAT | 10.05 ± 0.028
11 | AAAAAAAAAATATATATATATATATATATATATATA [GTGCAC_negctrl_site467] | 9.71 ± 0.71
12 | ATAAAGCACACCGACACACACATATATATATATATA [CACACA_site1047] | 10.3 ± 0.28
13 | AAAAAAAAAAAAATTACACACATACCTATAAGAATA [CACACA_site7097] | 9.885 ± 0.078
14 | TTTTCTTTTTTCTTTTTAACTCTTACATAATAGGTG [CACACA_negctrl_site642] | 10.3 ± 0.2
15 | AATATATGTTAAAATGGTACACAATTATTATATATT [XGTACX_site6407] | 11 ± 0.67
16 | AAAAAAAAAAAAAAGAGTACTTTTTTCACATTCATC [XGTACX_site8795] | 11.2 ± 0.6
17 | TAAAATGAATAAAATTGTACTTAATAATATTTTAAA [XGTACX_site5532] | 10.9 ± 0.74
18 | AAGGAAAACAGTAGGTGTACCAAACGTCCTAGGAAC [XGTACX_site3659] | 11.2 ± 0.69
19 | TATATTTATATCATCACACATTTTTTTTTTCTTTTT [CACACA_site6150] | 9.44 ± 0.33

Row | Sequence | gcPBM binding intensity (ln)
20 | CTTATAATATTACGGGTGCTATAAATACATTATATT | 10.2 ± 0.19
21 | TAAATCAAAAACAACAAGTCATATTAAAGATGGTAT [CACACA_negctrl_site1321] | 9.98 ± 0.028
22 | TTGTTTCAAAATTAAACACACACAAAAAAAAAAAAA [CACACA_site8856] | 9.91 ± 0.42
23 | TATTCCTAATTTAAAAGTACATATATATATATATAT [XGTACX_site3008] | 11.3 ± 0.79
24 | GGATATATAAGATACACACACAAATTAAATATAAAA [CACACA_site7333] | 10.1 ± 0.13
25 | TAATATATAAATATATGTACATAATTAATAGGATAT [XGTACX_site237] | 11.2 ± 0.73
26 | TAATTAAAATTATATATTAGAAAAAACATATAAAAC [CACACA_negctrl_site190] | 10 ± 0.31
27 | ATATGTAGAATAAAAAAAAAAAAAAAAAAAAAAAAT [CACACA_negctrl_site621] | 9.66 ± 0.23
28 | TAAAAATATATGTATACACACATATATATATATATA [CACACA_site3951] | 10 ± 0.38
29 | AAAAAAAGTGACTCCTTACACACTTTACATAATTTA [CACACA_site820] | 10.09 ± 0.057
30 | AATATTGAAATAACGCGTACAAAAAAAAGTTATATT [XGTACX_site6559] | 11.5 ± 0.71
31 | GTTAAGTGTATATATACACACATATGTAATACATGA [CACACA_site3048] | 10.2 ± 0.11
32 | TTAATTTATAAAAACACACACAGGTAAAAAGGTGCA [CACACA_site1177] | 10.29 ± 0.071
33 | ATGTTATATTATAAAAGTACATTTTATTTTTATTTA [XGTACX_site4365] | 11.1 ± 0.65
34 | TATATTTATTATAACACACACATATTTATATTATAG [CACACA_site6628] | 9.94 ± 0.099
35 | TTTCTTTTTAAATATATACACACCGGGTGTACATAT [CACACA_site3345] | 11.5 ± 0.98
36 | AGGTAATATACTAAATGTACAGAAAAACGAATTTTT [XGTACX_site2977] | 10.8 ± 0.4
37 | AATATAACTTTTTGCACACTTAATTTTTTTTTTTAA [CACACA_site3365] | 10.13 ± 0.064
38 | TAACAAAAAGCACTTAGTACATATATATATATATAT [XGTACX_site1099] | 10.8 ± 0.52

Row | Sequence | gcPBM binding intensity (ln)
39 | TAATATCAAACCTATAGTACATAAGGTATAAAAAAG [XGTACX_site3533] | 10.8 ± 0.56
40 | GTATTATTTTATGATGCATGTGTATTTCATATATGC [TGCATGCA_site660] | 9.975 ± 0.021
41 | AATGAAATAATACAATGTACGTTAAAAAAAAATAAA [XGTACX_site7928] | 11.2 ± 0.73
42 | AGAACATTTTCTCAGTGTACTTATATATTTGACATA [XGTACX_site6541] | 11.4 ± 0.94
43 | ACTAAACAATATGTATGTACATATTTTACATATAAT [XGTACX_site3318] | 11.3 ± 0.76
44 | TATACAATATTTATAACACACATATTTATATAAACT [CACACA_site6932] | 9.885 ± 0.078
45 | ACTTCCTATATTTATGCATGCATTTTATTAAAAAAT [TGCATGCA_site747] | 10.1 ± 0.16
46 | ATATATCATGAACCTTGTACGTATATATATATATAT [XGTACX_site239] | 11.4 ± 0.97
47 | GATGGAATCTAATTTACATGCAGTGATATAATAAAT [TGCATGCA_site1031] | 9.77 ± 0.18
48 | TAATAATAACCGTTATGTACACAATTTTGTGAACAT [XGTACX_site8053] | 11.6 ± 0.95
49 | ATTTATTTATTTATATGTACATATATATATATATAT [XGTACX_site339] | 11.4 ± 0.99
50 | TACAGACAGAAACACACACACACGCATAAAAAAAAA [CACACA_site1514] | 10.3 ± 0.38
51 | TTTTTTTTTTTTTTAACACACATATAAATATTTTTC [CACACA_site6985] | 9.75 ± 0.33
52 | TTTTTCTATTCCATTCAACACACAAAAATGTATGCT [CACACA_site8268] | 9.995 ± 0.078
53 | AAAGTTTTAAGAAAATGTACATAAGTATACATATAT [XGTACX_site1293] | 11 ± 0.51
54 | ATTCTTGTTATATAAGGTACAGAACAAAATATAAAA [XGTACX_site5510] | 11 ± 0.71
55 | TTTGGGATAAAACAAAGTACTAACAAAATATATAAT [XGTACX_site8240] | 11 ± 0.49
56 | TGCATTTTACTTGTTACACACATATAAAATTAACCA [CACACA_site7387] | 10.05 ± 0.085
57 | AAATGGAGTTAATATTGTACATATATATATATATAT [XGTACX_site5452] | 11 ± 0.68
